“And” between values parts separate entries of the source, which are not always exact repeats. Equal entries are not always repeated. Hit rate of the full screen: of about 3,200 compounds, about 300 (9.4%) showed activity. Only a part is listed here, and it is no random draw.
Test system: A673/TR/shEF
Assay: cell viability (LOESS-normalised, relative to median of negative controls) (log2 ratio); higher = more viable cells (less compound effect), active = hit call of the paper (over 3 MAD below the median)
Conditions: treatment time: 72 h
How it was run: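 Doxycycline, present or absent from 24 h before compounds, was used to induce EWS-FLI1 shRNA knockdown in A673/TR/shEF Ewing sarcoma cells at 1,500 per well in 384-well plates. Cells then received library compounds at two or more concentrations, or DMSO controls, for three days. Viability was measured by CellTiter-Glo luminescence on an Envision reader, and per-plate LOESS correction, division by the negative-control median and log2 transformation followed.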

[1] = 0.103 µM, library screen: screen3, EWS-FLI1 expression: high (no doxycycline)
[2] = 0.103 µM, library screen: screen3, EWS-FLI1 expression: low (doxycycline-induced shRNA knockdown)
[3] = 0.308 µM, library screen: screen3, EWS-FLI1 expression: high (no doxycycline)
[4] = 0.308 µM, library screen: screen3, EWS-FLI1 expression: low (doxycycline-induced shRNA knockdown)
[5] = 0.926 µM, library screen: screen3, EWS-FLI1 expression: high (no doxycycline)
[6] = 0.926 µM, library screen: screen3, EWS-FLI1 expression: low (doxycycline-induced shRNA knockdown)
[7] = 2.8 µM, library screen: screen3, EWS-FLI1 expression: high (no doxycycline)
[8] = 2.8 µM, library screen: screen3, EWS-FLI1 expression: low (doxycycline-induced shRNA knockdown)
[9] = 8.3 µM, library screen: screen3, EWS-FLI1 expression: high (no doxycycline)
[10] = 8.3 µM, library screen: screen3, EWS-FLI1 expression: low (doxycycline-induced shRNA knockdown)
[11] = 25 µM, library screen: screen3, EWS-FLI1 expression: high (no doxycycline)
[12] = 25 µM, library screen: screen3, EWS-FLI1 expression: low (doxycycline-induced shRNA knockdown)
[13] = 0.25 µM, library screen: screen1, EWS-FLI1 expression: high (no doxycycline)
[14] = 0.25 µM, library screen: screen1, EWS-FLI1 expression: low (doxycycline-induced shRNA knockdown)
[15] = 0.25 µM, library screen: screen2, EWS-FLI1 expression: high (no doxycycline)
[16] = 0.25 µM, library screen: screen2, EWS-FLI1 expression: low (doxycycline-induced shRNA knockdown)
[17] = 2.5 µM, library screen: screen1, EWS-FLI1 expression: high (no doxycycline)
[18] = 2.5 µM, library screen: screen1, EWS-FLI1 expression: low (doxycycline-induced shRNA knockdown)
[19] = 2.5 µM, library screen: screen2, EWS-FLI1 expression: high (no doxycycline)
[20] = 2.5 µM, library screen: screen2, EWS-FLI1 expression: low (doxycycline-induced shRNA knockdown)

Measured: cell viability (log2)

Nc1nc(=O)n([C@@H]2CS[C@H](CO)O2)cc1F
inactive: [1] 0.192 | [2] 0.0112 | [3] 0.127 | [4] 0.0608 | [5] 0.143 | [6] 0.0726 | [7] 0.139 | [8] 0.0596 | [9] 0.0605 | [10] 0.0396 | [11] 0.0881 | [12] 0.154

COc1ccc(Cl)cc1C(=O)NCCc1ccc(S(=O)(=O)NC(=O)NC2CCCCC2)cc1
inactive: [1] 0.115 | [2] 0.0621 | [13] 0.0607 | [14] 0.0399 | [15] 0.171 | [16] 0.0382 | [3] 0.175 | [4] 0.0954 | [5] 0.104 | [6] 0.103 | [17] 0.0749 | [18] 0.0806 | [19] 0.0699 | [20] 0.0189 | [7] 0.125 | [8] 0.0778 | [9] 0.113 | [10] 0.0685 | [11] 0.0907 | [12] 0.0579

CC#C[C@]1(O)CC[C@H]2[C@@H]3CCC4=CC(=O)CCC4=C3[C@@H](c3ccc(N(C)C)cc3)C[C@@]21C
inactive: [15] 0.155 | [16] 0.0864 | [19] 0.139 | [20] 0.0675

C=C(C)C1Cc2c(cc3oc(CO)cc(=O)c3c2O)O1 (stereo not drawn)
inactive: [13] 0.0482 | [14] -0.012 | [17] 0.067 | [18] 0.013

CCCCC(CC)CN=C(N)NC(N)=NCCCCCCN=C(N)NC(N)=NCC(CC)CCCC (stereo not drawn)
inactive: [13] 0.103 and 0.0973 | [14] 0.044 and 0.0691 | [17] 0.127 and 0.022 | [18] 0.0795 and 0.0454

Cn1cc(C(F)(F)F)nc1-c1ccc(OCC(O)CNCCOc2ccc(O)c(C(N)=O)c2)cc1 (stereo not drawn)
inactive: [15] 0.106 | [16] 0.126 | [19] 0.173 | [20] 0.0898

CN(C(=O)CN(CCO)CC(=O)N(C)C(C)(C)Cc1ccccc1)C(C)(C)Cc1ccccc1
inactive: [13] 0.105 | [14] 0.0799 | [17] 0.108 | [18] 0.0622

Cc1cc(C)nc(NS(=O)(=O)c2ccc(N)cc2)n1
inactive: [13] -0.0475 | [14] 0.107 | [17] 0.101 | [18] 0.0787

CC1(C)O[C@@H]2C[C@H]3[C@@H]4C[C@H](F)C5=CC(=O)C=C[C@]5(C)[C@@]4(F)[C@@H](O)C[C@]3(C)[C@]2(C(=O)CO)O1
inactive: [13] 0.151 | [14] -0.224 | [17] 0.219 | [18] -0.204

CCCCCCCCCCCCCCCC(=O)NCC(COP(=O)([O-])OCC[N+](C)(C)C)OC (stereo not drawn)
inactive: [15] 0.14 | [16] 0.124 | [19] 0.166 | [20] 0.0176

COc1cc(NS(=O)(=O)c2ccc(N)cc2)ncn1
inactive: [13] 0.124 | [14] -0.0105 | [17] 0.119 | [18] 0.0803

COc1cc(O)c2c(=O)c(OC)c(-c3ccc(OC)c(OC)c3)oc2c1
inactive: [13] 0.149 | [14] 0.0908 | [17] 0.162 | [18] 0.0431

CN([C@@H](Cc1ccc(OS(=O)(=O)c2cccc3cnccc23)cc1)C(=O)N1CCN(c2ccccc2)CC1)S(=O)(=O)c1cccc2cnccc12
active: [17] -0.171 | 25 µM, library screen: screen1, EWS-FLI1 expression: high (no doxycycline) -0.315

O=C(O)C1=CC(=C(c2ccc(O)c(C(=O)O)c2)c2ccc(O)c(C(=O)O)c2)C=CC1=O
inactive: [15] 0.177 | [16] 0.131 | [19] 0.0778 | [20] 0.154

O=c1ccn([C@@H]2O[C@H](COP(=O)(O)OP(=O)(O)O)[C@@H](O)[C@H]2O)c(=O)[nH]1
inactive: [15] 0.14 | [16] 0.0724 | [19] 0.171 | [20] 0.0953

CC(C(O)c1ccc(O)cc1)N1CCC(Cc2ccccc2)CC1 (stereo not drawn)
inactive: [15] 0.0651 | [16] 0.135 | [19] 0.0255 | [20] 0.077

NC(=O)c1ccccc1
inactive: [15] 0.227 | [16] 0.106 | [19] 0.0514 | [20] 0.136

C[C@H](CS)C(=O)N1CCC[C@H]1C(=O)O
inactive: [13] 0.0472 | [14] -0.0251 | [15] 0.157 | [16] 0.151 | [17] 0.121 | [18] 0.021 | [19] 0.173 | [20] 0.016

CN(Cc1cc(Br)cc(Br)c1N)C1CCCCC1
inactive: [13] 0.0812 | [14] 0.172 | [17] 0.0865 | [18] 0.262

CC1(C)O[C@@H]2C[C@H]3[C@@H]4C[C@H](F)C5=CC(=O)C=C[C@]5(C)[C@H]4[C@@H](O)C[C@]3(C)[C@]2(C(=O)CO)O1
inactive: [13] 0.115 | [14] -0.269 | [17] 0.129 | [18] -0.268

Cn1cnc2c(F)c(Nc3ccc(Br)cc3Cl)c(C(=O)NOCCO)cc21
active: [5] -0.189 | [7] -0.222 | [9] -0.293 | [11] -0.303

CC(=O)O[C@H]1CC[C@@]2(C)C(CC[C@]3(C)C2CC=C2C4CC(C)(C)CC[C@]4(C)CCC23C)C1(C)C (stereo partly drawn)
inactive: [13] 0.05 | [14] 0.112 | [17] 0.0854 | [18] 0.111

NCCc1ccc(O)c(O)c1
inactive: [1] 0.0229 | [2] 0.12 | [13] 0.134 | [14] 0.13 | [15] 0.116 | [16] 0.0773 | [3] 0.0305 | [4] 0.0741 | [5] 0.024 | [6] 0.0268 | [17] 0.261 | [18] 0.195 | [19] 0.104 | [20] 0.0824 | [7] 0.0629 | [8] -0.00804 | [9] -0.0412 | [10] 0.0864 | [11] 0.0364 | [12] 0.105

C=C1c2cc(OC)ccc2NC(=O)N1c1ccccc1
inactive: [13] 0.0622 | [14] 0.09 | [17] 0.104 | [18] 0.0838

NC(N)=NC(N)=Nc1ccccc1
inactive: [13] 0.0892 | [14] -0.00769 | [15] 0.168 | [16] 0.0794 | [17] 0.142 | [18] 0.0402 | [19] 0.19 | [20] 0.0668

CC(C)c1c(O)ccc2c1CCC1[C@@](C)(C=O)CCC[C@]21C (stereo partly drawn)
inactive: [13] 0.0641 | [14] 0.0754 | [17] 0.163 | [18] 0.289

CC(C)C[C@H](NC(=O)OCC1c2ccccc2-c2ccccc21)C(=O)O
inactive: [13] 0.0635 | [14] 0.0579 | [17] 0.116 | [18] -0.00318

COc1cc(OC)c(C2NC(=S)NC(C)=C2C(=O)Nc2ccccc2Cl)cc1OC (stereo not drawn)
inactive: [13] 0.0713 | [14] 0.0952 | [17] 0.0303 | [18] 0.0128

O=C(Cc1ccccc1)NO
inactive: [13] 0.111 | [14] 0.0668 | [17] 0.126 | [18] 0.0445

CCCCCC(O)CCCC(=O)O (stereo not drawn)
inactive: [15] 0.202 | [16] 0.058 | [19] 0.124 | [20] 0.143

CC(C)CCC[C@@H](C)[C@H]1CC[C@H]2[C@@H]3C[C@@H](O)[C@@]4(O)C[C@@H](O)CC[C@]4(C)[C@H]3CC[C@]12C
inactive: [13] 0.0995 | [14] 0.0108 | [17] 0.0184 | [18] -0.248

Nc1ncnc2c1ncn2C1CCCC1
inactive: [15] 0.222 | [16] 0.00723 | [19] 0.162 | [20] 0.101

CC(=O)OCC(=O)[C@@]1(O)CC[C@H]2[C@@H]3CCC4=CC(=O)C=C[C@]4(C)[C@H]3[C@@H](O)C[C@@]21C
inactive: [1] 0.0212 | [2] 0.0869 | [13] 0.0683 | [14] 0.0239 | [3] -0.0308 | [4] -0.0136 | [5] -0.0423 | [6] 0.1 | [17] 0.176 | [18] -0.0298 | [7] -0.0346 | [8] 0.0288 | [9] -0.0211 | [10] 0.081 | [11] -0.0344 | [12] 0.0787

C[C@]12CCC(=O)C=C1CC[C@@H]1[C@@H]2[C@@H](O)C[C@@]2(C)[C@H]1CC[C@]2(O)C(=O)COP(=O)(O)O
inactive: [13] 0.073 | [14] 0.0336 | [17] 0.192 | [18] -0.129

CCCCOc1ccc(C(=O)CCN2CCCCC2)cc1
inactive: [13] 0.096 | [14] 0.13 | [17] 0.175 | [18] 0.159

Cc1ccc(CN2CCN(Cc3c[nH]c4ccccc34)CC2)cc1
inactive: [13] 0.0521 | [14] 0.0225 | [17] 0.104 | [18] 0.0231

C=C1C(=O)O[C@H]2[C@H]1CC/C(C)=C/CC[C@@]1(C)O[C@@H]21
inactive: 0.025 µM, library screen: screen2, EWS-FLI1 expression: high (no doxycycline) 0.165 | 0.025 µM, library screen: screen2, EWS-FLI1 expression: low (doxycycline-induced shRNA knockdown) 0.0364 | [13] 0.0979 | [14] 0.00227 | [15] 0.159 | [16] 0.0828 | [17] 0.0402 | [18] 0.0512 | [19] 0.113 | [20] 0.0795 | 25 µM, library screen: screen2, EWS-FLI1 expression: high (no doxycycline) 0.0414 | 25 µM, library screen: screen2, EWS-FLI1 expression: low (doxycycline-induced shRNA knockdown) 0.0351

COc1cccc(O)c1O
inactive: [13] 0.0869 | [14] -0.0542 | [17] 0.0973 | [18] 0.197

Reference: the supplement of paper PMC6089552
